Compound in the test: NC1(c2ccc(-c3nc4ccn5c(=O)[nH]nc5c4cc3-c3ccccc3)cc2)CCC1 [MK-2206]
The test is described as follows: Viability of human cancer cell lines after 72 h of drug (GDSC screen). How it is done: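 Human cancer cell lines in 384-well plates, medium with 10% serum, drug for 72 h over a 256-fold dose range (nine 2-fold or five 4-fold steps up to the top dose). Adherent lines were fixed and stained with the nucleic acid dye Syto60, suspension lines read with resazurin; signal relative to control wells, capped at 0 and 100%. One two-parameter sigmoid per drug and line, fitted in a mixed model over all curves with the slope shared within a line.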

Lines with a small IC50 respond at low doses; a fit beyond the top or the lowest dose is shown as a bound at that dose. AUC is the area under the same curve over the 256-fold range up to the top dose, as a fraction; it is 1 without any effect and falls as sensitivity rises. Some results are limits rather than exact numbers.

What is called IC50 is the concentration needed to halve the response being measured.

“NB14 (neuroblastoma, adherent, top dose 4 µM)”: the AUC came out at 0.879 and the IC50 came out at 3.67 µM.

As to “NB17 (neuroblastoma, adherent, top dose 4 µM)”, the AUC stood at 0.984 and the half-maximal inhibitory concentration (IC50) is > 4 µM.

In the case of “NB69 (neuroblastoma, adherent, top dose 4 µM)”, the AUC turned out to be 0.807 and the IC50 came out at 1.78 µM.

As to “NB(TU)1-10 (neuroblastoma, adherent, top dose 4 µM)”, the AUC was determined as 0.993 and the IC50 was > 4 µM.

For “NB-4 (acute myeloid leukaemia, suspension, top dose 4 µM)”, the AUC amounted to 0.959 and the IC50 is > 4 µM.

Take “NCC010 (kidney, adherent, top dose 4 µM)”: the AUC was 0.859 and the IC50 was determined as 3.73 µM.

As to “NCC021 (kidney, adherent, top dose 4 µM)”, the AUC was 0.708 and the IC50 came out at 1.08 µM.

On to “NCI-H23 (lung adenocarcinoma, adherent, top dose 4 µM)”, for which the AUC was found to be 0.923 and the IC50 was > 4 µM.

Turning to “NCI-H28 (mesothelioma, adherent, top dose 4 µM)”, the AUC stood at 0.877 and the IC50 is > 4 µM.

“NCI-H64 (small cell lung carcinoma, suspension, top dose 4 µM)”: the AUC turned out to be 0.929 and the IC50 came to 3.59 µM.

Take “NCI-H69 (small cell lung carcinoma, suspension, top dose 4 µM)”: the AUC was found to be 0.801 and the IC50 is 2.21 µM.

With “NCI-H82 (small cell lung carcinoma, suspension, top dose 4 µM)”, the AUC was 0.925 and the IC50 is > 4 µM.

As to “NCI-H146 (small cell lung carcinoma, suspension, top dose 4 µM)”, the AUC is 0.995 and the IC50 is > 4 µM.

As to “NCI-H187 (small cell lung carcinoma, suspension, top dose 4 µM)”, the AUC turned out to be 0.821 and the IC50 was determined as 2.59 µM.

As for “NCI-H209 (small cell lung carcinoma, suspension, top dose 4 µM)”, the AUC was determined as 0.975 and the IC50 was > 4 µM.

Take “NCI-H211 (small cell lung carcinoma, adherent, top dose 4 µM)”: the AUC is 0.987 and the IC50 was > 4 µM.

In the case of “NCI-H226 (lung squamous cell carcinoma, adherent, top dose 4 µM)”, the AUC was determined as 0.955 and the IC50 was > 4 µM.

For “NCI-H322M (lung adenocarcinoma, suspension, top dose 4 µM)”, the AUC was determined as 0.984 and the IC50 is > 4 µM.

Take “NCI-H345 (small cell lung carcinoma, suspension, top dose 4 µM)”: the AUC turned out to be 0.952 and the IC50 is > 4 µM.

Turning to “NCI-H446 (small cell lung carcinoma, semi-adherent, top dose 4 µM)”, the AUC turned out to be 0.765 and the IC50 was 1.57 µM.

Take “NCI-H508 (large intestine, semi-adherent, top dose 4 µM)”: the AUC turned out to be 0.693 and the IC50 worked out at 1.27 µM.

For the cell line “NCI-H510A (small cell lung carcinoma, semi-adherent, top dose 4 µM)”, the AUC was determined as 0.988 and the IC50 was > 4 µM.

Turning to “NCI-H520 (lung squamous cell carcinoma, adherent, top dose 4 µM)”, the AUC was determined as 0.677 and the IC50 was found to be 0.796 µM.

Turning to “NCI-H522 (lung adenocarcinoma, adherent, top dose 2 µM)”, the AUC turned out to be 0.966 and the IC50 was > 2 µM.

In the case of “NCI-H524 (small cell lung carcinoma, suspension, top dose 4 µM)”, the AUC is 0.919 and the IC50 is > 4 µM.

Take “NCI-H526 (small cell lung carcinoma, suspension, top dose 4 µM)”: the AUC amounted to 0.871 and the IC50 came out at 3.48 µM.

As to “NCI-H596 (lung adenocarcinoma, adherent, top dose 4 µM)”, the AUC worked out at 0.961 and the IC50 is > 4 µM.

For the cell line “NCI-H630 (large intestine, adherent, top dose 4 µM)”, the AUC was 0.988 and the IC50 is > 4 µM.

As for “NCI-H647 (non-small cell lung carcinoma, adherent, top dose 4 µM)”, the AUC came out at 0.972 and the IC50 was > 4 µM.

Consider “NCI-H650 (lung adenocarcinoma, adherent, top dose 4 µM)”, for which the AUC is 0.985 and the IC50 was > 4 µM.

Consider “NCI-H661 (large cell lung carcinoma, adherent, top dose 4 µM)”, for which the AUC came to 0.791 and the IC50 amounted to 2.23 µM.

For the cell line “NCI-H720 (lung carcinoid, suspension, top dose 4 µM)”, the AUC came out at 0.702 and the IC50 amounted to 0.875 µM.

Consider “NCI-H727 (lung carcinoid, adherent, top dose 4 µM)”, for which the AUC is 0.826 and the IC50 is > 4 µM.

As to “NCI-H747 (large intestine, adherent, top dose 4 µM)”, the AUC was 0.794 and the IC50 was determined as 2.31 µM.

Turning to “NCI-H810 (large cell lung carcinoma, adherent, top dose 4 µM)”, the AUC is 0.988 and the IC50 is > 4 µM.

Consider “NCI-H835 (lung carcinoid, suspension, top dose 4 µM)”, for which the AUC was 0.904 and the IC50 was > 4 µM.

As to “NCI-H838 (lung adenocarcinoma, adherent, top dose 4 µM)”, the AUC stood at 0.693 and the IC50 worked out at 0.892 µM.

Turning to “NCI-H841 (small cell lung carcinoma, adherent, top dose 4 µM)”, the AUC came out at 0.867 and the IC50 came out at 3.65 µM.

With “NCI-H847 (small cell lung carcinoma, adherent, top dose 4 µM)”, the AUC was determined as 0.989 and the IC50 was > 4 µM.

As for “NCI-H929 (myeloma, suspension, top dose 4 µM)”, the AUC was determined as 0.237 and the half-maximal inhibitory concentration (IC50) was determined as 0.0501 µM.

Take “NCI-H1048 (small cell lung carcinoma, adherent, top dose 4 µM)”: the AUC came out at 0.824 and the IC50 amounted to 2.06 µM.

For the cell line “NCI-H1092 (small cell lung carcinoma, suspension, top dose 4 µM)”, the AUC came out at 0.984 and the IC50 is > 4 µM.

Consider “NCI-H1105 (small cell lung carcinoma, suspension, top dose 4 µM)”, for which the AUC is 0.933 and the IC50 is > 4 µM.

In the case of “NCI-H1155 (large cell lung carcinoma, suspension, top dose 4 µM)”, the AUC turned out to be 0.858 and the IC50 turned out to be 2.39 µM.

In the case of “NCI-H1304 (small cell lung carcinoma, suspension, top dose 4 µM)”, the AUC was 0.962 and the IC50 was > 4 µM.
